Assay results as given in PubChem BioAssay AID624296 (National Center for Advancing Translational Sciences (NCATS), 2012).
The campaign covered roughly 350,000 compounds. About 9,900 (2.8%) were called active. This list was built around the results that the source calls inconclusive (neither active nor inactive); the mix of calls is not that of the screen. Calls follow the shape of the dose curve; as a rule, active = well fitted activation curve with a large enough effect; inconclusive = small, poorly fitted or top-dose-only effect; inactive = no such curve, though single readings can be large or run the other way. No potency is given beside an inconclusive call; the fits are too rough.

Test: A quantitative high throughput screen for small molecules that induce DNA re-replication in MCF 10a normal breast cells. Also: nearly all actives have a fitted effect of over 50% in size. As to activity, positive = re-replication: % of control where 0% means no effect.
Conditions: MCF 10A DNA re-replication, Hoechst nuclear intensity, 48 h; activity, positive = re-replication: at 46.1 µM (top of the series)
Potency is read from the fitted curve at half-maximal effect; tags tell the direction and shape of the fitted curve.

| SMILES | activity, positive = re-replication | Potency |
| --- | --- | --- |
| Cn1c(N)c(C(=O)COC(=O)COc2ccccc2C#N)c(=O)n(C)c1=O | inactive: -1.34% |  |
| O=C(Nc1ccc2c(c1)OCCO2)c1ccc(Br)s1 |  | inconclusive [activator, single point] |
| COc1ncccc1-c1nnn(-c2ccc(C)cc2)n1 |  | inconclusive [activator, single point] |
| COc1c(Cl)cc(Cl)cc1/C=C/C(=O)c1ccc(NC(=O)c2cccs2)cc1 |  | active: 3.66 µM |
| Cc1ccc(O)c(C2=NNC(c3ccc(Cl)cc3)C2)c1 (stereo not drawn) | inactive: 2.8% |  |
| COCCn1c(C)cc(C(=O)CN2C(=O)NC3(CCCCCCC3)C2=O)c1C |  | active: 11.6 µM |
| O=C(O)C(Cc1ccccc1)NC(=O)C(c1ccccc1)c1ccccc1 (stereo not drawn) | inconclusive: -57.2% [activator] |  |
| Cc1cc(Br)ccc1NC(=O)CN(C)C(=O)C1CCN(C(=O)c2ccc(Cl)cc2)CC1 | inactive: -11.4% |  |
| Cc1ccc(C(=O)Nc2c(-c3cccs3)c(=O)c3ccccc3n2C)cc1 |  | inconclusive [activator, single point] |
| COc1ccc(/C=C2\SC(=O)N(CCC(=O)N3CCCCC3CCO)C2=O)cc1 (stereo not drawn) | inactive: 4.12% |  |
| C#CCNC(=O)C1=C[C@@H](c2ccc3c(c2)OCO3)C[C@@H](OCCCCO)O1 |  | inconclusive [activator, partial curve, poor fit] |
| c1ccc(-n2nnc3c(N4CCOCC4)ncnc32)cc1 |  | inconclusive [activator, full curve, poor fit] |
| Cc1ccc(NC(=O)CSc2ccc(-c3cccnc3)nn2)cc1 |  | inconclusive [activator, partial curve, poor fit] |
| O=C(CC1C(=O)NCCN1C(=O)Nc1ccccc1)Nc1cc(Cl)cc(Cl)c1 (stereo not drawn) |  | inconclusive [activator, partial curve, poor fit] |
| Cc1cccc(C)c1NC(=O)c1ccc([N+](=O)[O-])s1 |  | inconclusive [activator, partial curve, poor fit] |
| O=C(NC(c1ccccc1)c1ccccc1)c1cccc(S(=O)(=O)NCc2ccccc2)c1 | inactive: 20.1% |  |
| Fc1ccc(C2c3[nH]c4ccccc4c3CCN2Cc2ccoc2)cc1 (stereo not drawn) |  | inconclusive [activator, partial curve, poor fit] |
| CC(C)(CNC(=O)Cc1ccc(Cl)cc1Cl)N1CCCCC1 | inactive: 20.1% |  |
| COc1ccc(NC(=O)CCCc2nc3ccccc3c(=O)[nH]2)cc1Cl | inactive: -7.74% |  |
| COc1ccc(/C=C(/NC(=O)c2ccco2)C(=O)Nc2cccc(C(=O)O)c2)cc1 |  | inconclusive [activator, partial curve, poor fit] |
| COC(CNC(=O)c1ccc2c(c1)nc(C)n2-c1cccc(C)c1)OC | inactive: -2.09% |  |
| CSc1ccccc1NC(=O)c1ccccc1N(Cc1ccccc1)S(C)(=O)=O | inactive: 0.394% |  |
| CC(=O)c1cccc(CN2CCCC(CCC(=O)NCc3ccc(F)c(F)c3)C2)c1 (stereo not drawn) |  | inconclusive [activator, full curve, poor fit] |

| SMILES | activity, positive = re-replication | Potency |
| --- | --- | --- |
| COc1ccc(-c2csc(NC(=O)CSCc3c(C)noc3C)n2)cc1OC |  | inconclusive [activator, partial curve, poor fit] |
| CCOC(=O)c1cc2c(=O)n3ccccc3nc2n(CCCOC)c1=NC(=O)C(C)(C)C |  | inconclusive [activator, partial curve, poor fit] |
| CCOc1ccc(NC(=O)c2ccc3c(c2)C(=O)N(Cc2ccncc2)C3=O)cc1 | inactive: -12% |  |
| NS(=O)(=O)c1ccc(CCNC(=O)CNC(=O)c2ccc(F)cc2)cc1 |  | inconclusive [activator, full curve, poor fit] |
| CCCC(=O)Nc1ccc(S(=O)(=O)Nc2cc(OC)ncn2)cc1 | inactive: -0.381% |  |
| COC(=O)c1c(NC(=O)/C=C/c2ccco2)sc2c1CCC2 |  | inconclusive [activator, partial curve] |
| CCCCCCCCC(=O)N/N=C(\C)c1ccc(O)cc1O |  | inconclusive [activator, single point] |
| CCCCN(CC)CCCNC(=O)c1cc2c(=O)n(CC)c3ccccc3c2s1 |  | inconclusive [activator, partial curve, poor fit] |
| Cc1ccccc1Nc1nc(N)nc(COC(=O)c2c(C)noc2C)n1 |  | inconclusive [activator, partial curve, poor fit] |
| CC(C)(C)c1ccc(-n2ncc3c2CCCC3NC(=O)CCN2CCCCC2=O)cc1 (stereo not drawn) |  | inconclusive [activator, partial curve] |
| C/C(=N/NC(=O)c1cc2ccccc2cc1O)c1ccco1 |  | inconclusive [activator, single point] |
| CCOc1ccc(N(C)S(=O)(=O)c2ccc(C)c(C(=O)N3CCN(Cc4ccc5c(c4)OCO5)CC3)c2)cc1 |  | inconclusive [activator, full curve, poor fit] |
| S=c1[nH]nc(-c2ccc(Br)o2)n1Cc1ccccc1 |  | inconclusive [activator, full curve, poor fit] |
| COc1cccc(NC(=S)N2CCC(N(C)CC3CCCO3)CC2)c1 (stereo not drawn) |  | inconclusive [activator, full curve] |
| COC(=O)c1ccc(NC(=O)Cn2c([N+](=O)[O-])cnc2C)cc1 | inactive: 10.7% |  |
| O=C(NCC1CCCO1)c1c(O)c2cccc3c2n(c1=O)CC3 (stereo not drawn) |  | inconclusive [activator, partial curve, poor fit] |
| COc1ccc(N(C(=O)c2ccccc2C)S(=O)(=O)c2cccs2)cc1 |  | active: 1.16 µM |
| COc1ccc(C(=O)C2CCN(C(=O)c3ccc(C)cc3)CC2)cc1 | inactive: 12.4% |  |
| Cc1cc(=O)n2[nH]c(C)c(-c3ccc(Cl)cc3)c2n1 | inactive: -3.46% |  |
| COc1ccc(C2=NS(=O)(=O)N(C)C(C(=O)N(C)Cc3ccccc3)=C2)cc1OC |  | inconclusive [activator, partial curve, poor fit] |
| O=C(NCCCn1ccnc1)c1ccc(Br)s1 | inactive: 17.6% |  |
| Cc1ccc(S(=O)(=O)N2CCCCC2)cc1C(=O)N(C)CC(=O)Nc1ccc(Cl)c(C(F)(F)F)c1 |  | active: 23.1 µM |
| CCn1nc(NC(=O)c2ccco2)c2cc3ccc(C)cc3nc21 |  | active: 8.91 µM |

| SMILES | activity, positive = re-replication | Potency |
| --- | --- | --- |
| Cc1ccc(C(=O)Nc2ccc(Cl)cn2)cc1S(=O)(=O)N1CCOCC1 | inactive: 6.67% |  |
| Cc1[nH]n(-c2ccccc2)c(=O)c1C=Nc1ccc(S(=O)(=O)N=C(N)N)cc1 | inactive: 3% |  |
| O=C(Nc1ccc([N+](=O)[O-])cc1)N1CCCCCC1 | inactive: 0.0504% |  |
| COC(=O)CCCC(=O)NCC1(N(C)Cc2ccccc2)Cc2ccccc2C1 |  | inconclusive [activator, single point] |
| CS(=O)(=O)Nc1cccc(-c2cnc3ccccc3n2)c1 |  | inconclusive [activator, full curve, poor fit] |
| O=C(COc1ccccc1)Nc1nc2cc3c(cc2s1)OCO3 |  | inconclusive [activator, partial curve, poor fit] |
| Cn1nc(C(F)(F)F)c(-c2ccc(F)cc2)c1NC(=O)c1cccnc1 |  | inconclusive [activator, partial curve, poor fit] |
| CCCCN1C(=O)C(O)(CC(=O)c2ccco2)c2cc(Br)ccc21 (stereo not drawn) |  | inconclusive [activator, single point] |
| C=C[C@@H]1c2cc(C)ccc2N(S(=O)(=O)c2ccc(C)cc2)[C@H](c2ccccc2)C1(C#N)S(=O)(=O)c1ccccc1 (stereo partly drawn) |  | inconclusive [activator, partial curve, poor fit] |
| COc1ccc(C(=O)NCC(=O)OCC(=O)N2N=C(c3ccc(Cl)cc3)CC2c2ccco2)cc1OC (stereo not drawn) |  | inconclusive [activator, partial curve, poor fit] |
| Cc1ccc2[nH]cc(/C=C/c3cc[n+](C)cc3)c2c1 |  | inconclusive [activator, full curve, poor fit] |
| CCN(CC)S(=O)(=O)c1ccc(/C=C/C(=O)OCC(=O)NCc2cccs2)cc1 |  | inconclusive [activator, partial curve, poor fit] |
| CCCCN(CCCNC(=O)Cn1nc(CC)n2c(cc3sc(C)cc32)c1=O)Cc1ccccc1 |  | inconclusive [activator, single point] |
| CC(Sc1n[nH]c(N)n1)C(=O)C12CC3CC(CC(C3)C1)C2 (stereo not drawn) | inactive: 5.89% |  |
| CC(C)CCNc1ncnc2c1nnn2Cc1ccccc1 |  | inconclusive [activator, single point] |
| N#C/C(=C\c1ccc[nH]1)C(=O)Nc1ccccc1[N+](=O)[O-] | inactive: -32.2% |  |
| COc1ccc(OC)c(S(=O)(=O)N2CCN(C(=O)CCc3ccccc3)CC2)c1 | inactive: 3.55% |  |
| COc1cc2[nH]c(C(=O)NCc3ccccc3)cc2c(OC)c1OC | inactive: 0.299% |  |
| CCC(N=c1cc(-c2ccc(OC)c(OC)c2)oc2ccc(C)cc12)C(=O)O (stereo not drawn) |  | inconclusive [activator, single point] |
| COc1ccc(CN(C#N)c2nc(SC)nc(N(C)C)n2)cc1 |  | inconclusive [activator, partial curve, poor fit] |
| CCOC(=O)N1CCC(NC(=O)C(CC(C)C)NC(=O)C2CCCCC2)CC1 (stereo not drawn) |  | inconclusive [activator, partial curve, poor fit] |
| CC(=O)Oc1ccc(OC(C)=O)c(SCCCCCN2CCOCC2)c1 |  | active: 4.11 µM |
